Some of the results follow. Sequences were assembled here from the parent chain. Values near 0.05 are background.
B1: TEV protease; numbered along this chain (parent)
chain: MGESLFKGPRDYNPISSSICHLTNESDGHTTSLYGIGFGPFIITNKHLFRRNNGTLVVQSLHGVFKVKDTTTLQQHLVDGRDMIIIRMPKDFPPFPQKLKFREPQREERICLVTTNFQTKSMSSMVSDTSCTFPSGDGIFWKHWIQTKDGQCGSPLVSTRDGFIVGIHSASNFTNTNNYFTSVPKNFMELLTNQEAQQWVSGWRLNADSVLWGGHKVFMVKPEEPFQPVKEATQL

Variants of: B1
Assay: raw area under fraction-flipped curve 0-4 h after induction (AUC4h, not background-subtracted), DNA-recorder readout of cleavage of the substrate (dimensionless); higher = more cleavage of the substrate by the protease variant
Conditions: temperature: 34 °C; time window: 0-4 h after rhamnose induction
Protocol: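 In vivo DNA recorder in E. coli TOP10(DE3) ΔrhaA at 34 °C. Each TEVp single-site mutant (parent TEVp 0) is paired with a single-site variant of the 7-mer TEVs (canonical ENLYFQ|S). The substrate sits between flexible linkers in a Bxb1-sfGFP-TEVs-SsrA fusion, so cleavage stabilises Bxb1 and speeds flipping of a recombination array, read by NGS. The value is the raw area under the fraction-flipped curve over 0-4 h after rhamnose induction (AUC4h), with ≥20 reads per time point. It is not background-subtracted; inactive controls average about 0.047.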
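Also: Bxb1 expression induced with 0.2% (w/v) L-rhamnose at OD600 near 0.5, cultures sampled hourly, flipped fraction per protease–substrate barcode pair counted by paired-end Illumina sequencing.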

Row | Variant | area with substrate ENLCFQS | area with substrate ENLDFQS | area with substrate ENLFFQS | area with substrate ENLHFQS | area with substrate ENLIFQS | area with substrate ENLNFQS | area with substrate ENLPFQS | area with substrate ENLSFQS | area with substrate ENLTFQS | area with substrate ENLGFQS | area with substrate ENLKFQS | area with substrate ENLLFQS | area with substrate ENLMFQS | area with substrate ENLQFQS | area with substrate ENLRFQS | area with substrate ENLEFQS | area with substrate ENLVFQS | area with substrate ENLWFQS
1 | MGESLFKGPRDYNPISSSICHLTNESDGHTTSLYGIGFGPFIITNKHLFRRNNGTLVVQSLHGVFKVKDTTTLQQHLVDGRDMIIIRMPKDFPPFPQKLKFREPQREERICLVTTNFQTKSMSSMVSDTSTTFPSGDGIFWKHWIQTKDGQCGSPLVSTRDGFIVGIHSASNFTNTNNYFTSVPKNFMELLTNQEAQQWVSGWRLNADSVLWGGHKVFMVKPEEPFQPVKEATQL [C131T] | 0.0696 | 0.0648 | 0.0938 | 0.0781 | 0.111 | 0.146 | 0.0468 | 0.0591 | 0.0743 |  |  |  |  |  |  |  |  | 
2 | MGESLFKGPRDYNPISSSICHLTNESDGHTTSLYGIGFGPFIITNKHLFRRNNGTLVVQSLHGVFKVKDTTTLQQHLVDGRDMIIIRMPKDFPPFPQKLKFREPGREERICLVTTNFQTKSMSSMVSDTSCTFPSGDGIFWKHWIQTKDGQCGSPLVSTRDGFIVGIHSASNFTNTNNYFTSVPKNFMELLTNQEAQQWVSGWRLNADSVLWGGHKVFMVKPEEPFQPVKEATQL [Q105G] | 0.0706 | 0.0651 | 0.0781 | 0.0721 | 0.0286 | 0.0637 |  | 0.0664 | 0.0771 | 0.0702 | 0.0757 | 0.0573 | 0.0733 | 0.0587 | 0.0603 |  |  | 
3 | MGESLFKGPRDYNPISSSICHLTNESDGHTTSLYGIGFGPFIITNKHLFRRNNGTLVVQSLHGVFKVKDTTTLQQHLVDGRDMIIIRMPKDFPPFPQKLKFREPQRKERICLVTTNFQTKSMSSMVSDTSCTFPSGDGIFWKHWIQTKDGQCGSPLVSTRDGFIVGIHSASNFTNTNNYFTSVPKNFMELLTNQEAQQWVSGWRLNADSVLWGGHKVFMVKPEEPFQPVKEATQL [E107K] | 0.0744 |  | 0.0837 | 0.0752 | 0.0688 | 0.0695 | 0.0707 | 0.0372 |  |  | 0.0731 |  | 0.0768 | 0.0683 |  | 0.0578 | 0.0838 | 0.0718
4 | MGESLFKGPRDYNPISSSICHLTNESDGHTTSLYGIGFGPFIITNKHLFRRNNGTLVVQSLHGVFKVKDTTTLQQHLVDGRDMIIIRMPKDFPPFPQKLKFREPQRNERICLVTTNFQTKSMSSMVSDTSCTFPSGDGIFWKHWIQTKDGQCGSPLVSTRDGFIVGIHSASNFTNTNNYFTSVPKNFMELLTNQEAQQWVSGWRLNADSVLWGGHKVFMVKPEEPFQPVKEATQL [E107N] | 0.0812 | 0.0568 | 0.113 | 0.0419 | 0.104 | 0.0511 | 0.0598 | 0.0573 |  | 0.0628 | 0.0774 | 0.0729 |  |  | 0.085 | 0.0654 |  | 
5 | MGESLFKGPRDYNPISSSICHLTNESDGHTTSLYGIGFGPFIITNKHLFRRNNGTLVVQSLHGVFKVKDTTTLQQHLVDGRDMIIIRMPKDFPPFPQKLKFREPQREERICLVTTNFQTKSHSSMVSDTSCTFPSGDGIFWKHWIQTKDGQCGSPLVSTRDGFIVGIHSASNFTNTNNYFTSVPKNFMELLTNQEAQQWVSGWRLNADSVLWGGHKVFMVKPEEPFQPVKEATQL [M122H] | 0.0704 | 0.0651 | 0.101 | 0.058 | 0.0851 | 0.0637 | 0.0555 | 0.0672 | 0.0733 | 0.0741 | 0.0617 |  |  | 0.0568 |  | 0.069 |  | 
6 | MGESLFKGPRDYNPISSSICHLTNESDGHTTSLYGIGFGPFIITNKHLFRRNNGTLVVQSLHGVFKVKDTTTLQQHLVDGRDMIIIRMPKDFPPFPQKLKFREPQREERICLVTTNFQTKSMSSMVSDTGCTFPSGDGIFWKHWIQTKDGQCGSPLVSTRDGFIVGIHSASNFTNTNNYFTSVPKNFMELLTNQEAQQWVSGWRLNADSVLWGGHKVFMVKPEEPFQPVKEATQL [S130G] | 0.084 | 0.0684 | 0.103 | 0.0753 | 0.0847 | 0.0723 | 0.0383 | 0.063 |  | 0.0796 |  |  | 0.0705 |  |  |  |  | 
7 | MGESLFKGPRDYNPISSSICHLTNESDGHTTSLYGIGFGPFIITNKHLFRRNNGTLVVQSLHGVFKVKDTTTLQQHLVDGRDMIIIRMPKDFPPFPQKLKFREPQREVRICLVTTNFQTKSMSSMVSDTSCTFPSGDGIFWKHWIQTKDGQCGSPLVSTRDGFIVGIHSASNFTNTNNYFTSVPKNFMELLTNQEAQQWVSGWRLNADSVLWGGHKVFMVKPEEPFQPVKEATQL [E108V] | 0.068 | 0.0604 | 0.0739 | 0.0605 | 0.0692 | 0.0606 | 0.0528 | 0.0607 | 0.0626 | 0.0605 | 0.063 | 0.0543 |  | 0.0594 | 0.0759 | 0.0635 |  | 0.0458
8 | MGESLFKGPRDYNPISSSICHLTNESDGHTTSLYGIGFGPFIITNKHLFRRNNGTLVVQSLHGVFKVKDTTTLQQHLVDGRDMCIIRMPKDFPPFPQKLKFREPQREERICLVTTNFQTKSMSSMVSDTSCTFPSGDGIFWKHWIQTKDGQCGSPLVSTRDGFIVGIHSASNFTNTNNYFTSVPKNFMELLTNQEAQQWVSGWRLNADSVLWGGHKVFMVKPEEPFQPVKEATQL [I84C] | 0.0752 | 0.0513 |  | 0.0682 | 0.0776 | 0.0603 |  | 0.0696 |  | 0.0587 | 0.0844 |  |  | 0.0844 |  |  | 0.118 | 0.0738
9 | MGESLFKGPRDYNPISSSICHLTNESDGHTTSLYGIGFGPFIITNKHLFRRNNGTLVVQSLHGVFKVKDTTTLQQHLVDGRDMIIIRMPKDFPPFPQKLKFREPQREERICLVVTNFQTKSMSSMVSDTSCTFPSGDGIFWKHWIQTKDGQCGSPLVSTRDGFIVGIHSASNFTNTNNYFTSVPKNFMELLTNQEAQQWVSGWRLNADSVLWGGHKVFMVKPEEPFQPVKEATQL [T114V] | 0.0677 | 0.0592 | 0.0928 |  |  | 0.0708 | 0.052 | 0.0556 | 0.0666 |  | 0.093 | 0.0583 | 0.0929 |  | 0.0411 | 0.0671 | 0.0775 | 0.073

Source: the supplement of paper PMC12217912
